Data from the supplement of paper PMC8285479.
Structures can show the parent of a compound that is named as a salt. ± gives the standard deviation of the averaged measurements. Whole data set: some 1,900 compounds, median “normalised cell viability (NPI; 0 = phenylarsine oxide control, 1 = DMSO control)” near 1, cut for the lowest 2% near 0.039. The list shows a part of the results.

Test system: NCI-H1944
Experiment: normalised cell viability (NPI; 0 = phenylarsine oxide control, 1 = DMSO control) (fraction of DMSO control); NCI-H1944 is a non-small cell lung cancer line; higher = more viable cells (less compound toxicity)
Details: 6 days
[1] = glucocorticoid arm: hydrocortisone 2.75 uM co-treatment, compound 1 µM
[2] = glucocorticoid arm: hydrocortisone 2.75 uM co-treatment, compound 5 µM
[3] = glucocorticoid arm: hydrocortisone 2.75 uM pre-treated 2 days and continued, compound 1 µM
[4] = glucocorticoid arm: hydrocortisone 2.75 uM pre-treated 2 days and continued, compound 5 µM
[5] = glucocorticoid arm: vehicle, compound 1 µM
[6] = glucocorticoid arm: vehicle, compound 5 µM
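Further: CTB read-out in 384-well plates, mean of triplicate wells, normalised per plate against 1 µM phenylarsine oxide and 0.1% DMSO, compounds added 24 h after seeding.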

Compound	normalised cell viability [1]	normalised cell viability [2]	normalised cell viability [3]	normalised cell viability [4]	normalised cell viability [5]	normalised cell viability [6]
CNCC(O)c1ccc(O)cc1 (racemic) [(±)-Synephrine]	0.987 ± 0.013	1.01 ± 0.015	0.924 ± 0.15	0.988 ± 0.0046	1.01	1.02 ± 0.021
CN(N=O)c1ccc(O)c(O)c1 [Me-3,4-dephostatin]	1.017 ± 0.0058	1.01 ± 0.017	1.007 ± 0.0058	1.05 ± 0.086	1.01 ± 0.011	1.02 ± 0.01
Cc1ccccc1-n1c(Cn2cnc3c(N)ncnc32)nc2cccc(C)c2c1=O	1.003 ± 0.0058	1.02 ± 0.028	1 ± 0.015	1.02 ± 0.031	1 ± 0.017	1.01 ± 0.011
CCCN1CCC[C@@H]2Cc3nc(N)ncc3C[C@H]21 [Quinelorane dihydrochloride]	0.998 ± 0.0017	1 ± 0.018	0.969 ± 0.054	1.017 ± 0.0058	0.997 ± 0.012	0.997 ± 0.002
C=CC[C@]1(O)CC[C@H]2[C@@H]3CCC4=CC(=O)CCC4=C3C=C[C@@]21C [Altrenogest]	1.03	1.06 ± 0.021	1.01 ± 0.018	1.06 ± 0.015	1.017 ± 0.0058	1.007 ± 0.0058
CC(Cc1ccc(O)cc1)NCC(O)c1cc(O)cc(O)c1 (stereo not given) [Fenoterol hydrobromide]	1 ± 0.013	1.01 ± 0.028	1.01 ± 0.019	1.03 ± 0.011	0.99967 ± 0.00058	0.9967 ± 0.0042
C1CCc2nnnn2CC1 [Pentylenetetrazole]	1.01	1.02 ± 0.023	1.01 ± 0.011	1.02 ± 0.023	0.999 ± 0.0017	1.01 ± 0.019
Cn1cnc(CCN)c1 [1-Methylhistamine dihydrochloride]	0.998 ± 0.013	0.98 ± 0.011	0.996 ± 0.025	0.961 ± 0.022	1.002 ± 0.0068	1.01 ± 0.018
C=CCN1CC[C@]23c4c5ccc(O)c4O[C@H]2/C(=N/NC(=O)c2ccccc2)CC[C@@]3(O)[C@H]1C5 [Naloxone benzoylhydrazone]	0.998 ± 0.002	1.01 ± 0.03	1 ± 0.015	1.03 ± 0.071	0.991 ± 0.0035	1 ± 0.017
S=C(NC1CCCCC1)N1CCC(c2cnc[nH]2)CC1 [Thioperamide maleate]	1 ± 0.011	1.02 ± 0.01	1.02 ± 0.028	1.003 ± 0.0058	0.9983 ± 0.0015	1
NC(N)=NOCC[C@H](N)C(=O)O [L-Canavanine]	1 ± 0.0095	1.01 ± 0.01	1.003 ± 0.0058	0.988 ± 0.011	1 ± 0.0091	1.005 ± 0.0092
NC(N)=NOCC[C@H](N)C(=O)O [L-Canavanine sulfate]	0.991 ± 0.018	0.999 ± 0.011	1.003 ± 0.0058	0.995 ± 0.0071	1.01	1.007 ± 0.0058
C=C(C)[C@H]1CN[C@H](C(=O)O)[C@H]1CC(=O)O [Kainic acid]	0.993 ± 0.015	0.995 ± 0.025	1.01 ± 0.013	1.03 ± 0.092	0.9897 ± 0.0076	0.995 ± 0.024
N[C@@H](Cn1ccc(=O)[nH]c1=O)C(=O)O [S(-)-Willardiine]	1.007 ± 0.0058	1.023 ± 0.0058	0.847 ± 0.28	1.02 ± 0.015	1.002 ± 0.007	1.007 ± 0.0058
CCCCN1[C@@H]2CC[C@H]1CC(OC(c1ccc(F)cc1)c1ccc(F)cc1)C2 (stereo not given in full) [JHW 007 hydrochloride]	0.969 ± 0.017	0.629 ± 0.055	0.987 ± 0.011	0.969 ± 0.011	0.993 ± 0.003	0.228 ± 0.12
CC12CCC3C(CCC4=C(O)C(=O)CCC43C)C1CCC2=O (stereo not given) [4-Androsten-4-ol-3,17-dione]	0.9977 ± 0.0021	0.9747 ± 0.0093	0.999 ± 0.001	1 ± 0.011	0.995 ± 0.015	1.003 ± 0.0061
O=C(N[C@H]1CN2CCC1CC2)c1ccc(Cl)cc1	1.02 ± 0.01	1.01 ± 0.022	1.023 ± 0.0058	1.02 ± 0.015	0.998 ± 0.0035	1.013 ± 0.0058
O=[N+]([O-])c1ccc2nc(N3CCNCC3)ccc2c1 [Quipazine, 6-nitro-, maleate]	1.013 ± 0.0058	0.992 ± 0.0035	0.851 ± 0.29	1.063 ± 0.0058	1.023 ± 0.0058	1.02
c1ccc2c(N3CCNCC3)cccc2c1 [1-(1-Naphthyl)piperazine hydrochloride]	1.01 ± 0.01	1.004 ± 0.0098	1.02 ± 0.032	1.02 ± 0.01	0.9973 ± 0.0046	1 ± 0.011
CCCN(CCC)CCc1c[nH]c2ccc(C(N)=O)cc12 [N,N-Dipropyl-5-carboxamidotryptamine maleate]	0.999 ± 0.01	0.973 ± 0.011	0.9867 ± 0.0055	0.9693 ± 0.0071	0.994 ± 0.0027	0.9917 ± 0.0021
CC(C)N(CCC(C(N)=O)(c1ccccc1)c1ccccn1)C(C)C (stereo not given) [Disopyramide phosphate]	1.01 ± 0.01	1.013 ± 0.0058	1.01 ± 0.011	1.01 ± 0.011	0.9843 ± 0.0063	0.982 ± 0.0046
CC(C)N(CCC(C(N)=O)(c1ccccc1)c1ccccn1)C(C)C (stereo not given) [Disopyramide]	0.989 ± 0.016	0.989 ± 0.0095	0.998 ± 0.02	0.983 ± 0.0061	0.982 ± 0.0066	0.984 ± 0.0027
N=C(N)NN [Aminoguanidine hemisulfate]	1.023 ± 0.0058	0.99 ± 0.015	1.02	0.999 ± 0.016	1.007 ± 0.0058	1.007 ± 0.0058
N=C(N)NN [Aminoguanidine hydrochloride]	0.9863 ± 0.0046	0.971 ± 0.0087	0.9883 ± 0.0047	0.965 ± 0.019	0.971 ± 0.015	0.976 ± 0.0046
C=CCN1C[C@H](C)N([C@H](c2ccc(C(=O)N(CC)CC)cc2)c2cccc(OC)c2)C[C@H]1C	0.9903 ± 0.009	0.995 ± 0.017	1.01 ± 0.034	0.991 ± 0.0066	0.994 ± 0.0066	0.993 ± 0.007
